Lines with a small IC50 respond at low doses; a limit (>, <) means that the fit lies beyond the doses tested. AUC, from the same fit, is the share of area under the viability curve across the 256-fold dose range; it is 1 without any effect and falls as sensitivity rises. For some of these results: An inferred top dose was calculated from the reported fits.
What was measured:
Test in all cases: Viability of human cancer cell lines after 72 h of drug (GDSC screen)
[1] = compound: CC(C)(C)c1nc(-c2cccc(NS(=O)(=O)c3c(F)cccc3F)c2F)c(-c2ccnc(N)n2)s1 [Dabrafenib]; settings: top dose 10 µM
Method: (§1)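 Human cancer cell lines in 384-well plates, medium with 10% serum, drug for 72 h over a 256-fold dose range (nine 2-fold or five 4-fold steps up to the top dose). Adherent lines were fixed and stained with the nucleic acid dye Syto60, suspension lines read with resazurin; signal relative to control wells, capped at 0 and 100%. One two-parameter sigmoid per drug and line, fitted in a mixed model over all curves with the slope shared within a line.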

[2] = compound: CN(Cc1cnc2nc(N)nc(N)c2n1)c1ccc(C(=O)N[C@@H](CCC(=O)O)C(=O)O)cc1 [Methotrexate]; settings: top dose 0.2 µM
Method: as §1

[3] = compound: O=C(CCCCCCC(=O)Nc1ccccc1)NO [Vorinostat]; settings: top dose 10 µM
Method: as §1

[4] = compound: CNC(=O)c1ccccc1Sc1ccc2c(/C=C/c3ccccn3)n[nH]c2c1 [Axitinib]; settings: top dose 2 µM
Method: as §1

[5] = compound: CCc1c2c(nc3ccc(O)cc13)-c1cc3c(c(=O)n1C2)COC(=O)[C@]3(O)CC [SN-38]; settings: top dose 0.05 µM; top dose inferred
Method: as §1

Cell Line | AUC [1] | IC50 [1] [nM] | AUC [2] | IC50 [2] [nM] | AUC [3] | IC50 [3] [nM] | AUC [4] | IC50 [4] [nM] | AUC [5] | IC50 [5] [nM]
NCI-H835 (lung carcinoid, suspension) | 0.99 | > 10000 | 0.87 | 170 | 0.642 | 1510 | 0.964 | > 2000 | 0.974 | > 50
MDST8 (large intestine, adherent) | 0.196 | 78.9 | 0.783 | 83.7 | 0.738 | 2980 | 0.937 | > 2000 | 0.539 | 3.98
ES8 (Ewing sarcoma, adherent) | 0.969 | > 10000 | 0.963 | > 200 | 0.579 | 1010 | 0.808 | 940 | 0.262 | 0.694
NCI-H1395 (lung adenocarcinoma, adherent) | 0.971 | > 10000 | 0.965 | > 200 | 0.876 | > 10000 | 0.965 | > 2000 | 0.696 | 13.4
TGBC1TKB (biliary tract, adherent) | 0.987 | > 10000 | 0.976 | > 200 | 0.88 | > 10000 | 0.989 | > 2000 | 0.874 | 48.2
NCI-H1304 (small cell lung carcinoma, suspension) | 0.986 | > 10000 | 0.98 | > 200 | 0.883 | > 10000 | 0.988 | > 2000 | 0.939 | > 50
KMOE-2 (acute myeloid leukaemia, suspension) | 0.797 | 4130 | 0.636 | 28.4 | 0.434 | 421 | 0.933 | > 2000 | 0.796 | 20.6
ATN-1 (T-cell lymphoblastic leukaemia, suspension) | 0.951 | > 10000 | 0.473 | 10.6 | 0.396 | 331 | 0.746 | 598 | 0.451 | 2.33
EW-24 (Ewing sarcoma, semi-adherent) | 0.981 | > 10000 | 0.947 | > 200 | 0.788 | 3830 | 0.97 | > 2000 | 0.824 | 25.1
CAL-120 (breast, adherent) | 0.752 | 4180 | 0.98 | > 200 | 0.785 | 5690 | 0.974 | > 2000 | 0.692 | 12.8
8305C (thyroid, adherent) | 0.434 | 389 | 0.833 | 190 | 0.731 | 3550 | 0.96 | > 2000 | 0.79 | 30.3
Caov-4 (ovary, adherent) | 0.974 | > 10000 | 0.98 | > 200 | 0.841 | > 10000 | 0.908 | > 2000 | 0.624 | 8.06
GB-1 (glioma, adherent) | 0.898 | > 10000 | 0.982 | > 200 | 0.723 | 3030 | 0.967 | > 2000 | 0.532 | 3.88
JHH-7 (liver, adherent) | 0.869 | 8240 | 0.989 | > 200 | 0.81 | 4860 | 0.94 | > 2000 | 0.805 | 23.4
SBC-3 (small cell lung carcinoma, adherent) | 0.943 | > 10000 | 0.701 | 43.2 | 0.55 | 845 | 0.881 | 1760 | 0.367 | 1.39
HC-1 (hairy cell leukaemia, suspension) | 0.904 | > 10000 | 0.887 | > 200 | 0.858 | 7670 | 0.974 | > 2000 | 0.473 | 2.64
SCC-4 (head and neck, adherent) | 0.947 | > 10000 | 0.977 | > 200 | 0.72 | 2980 | 0.902 | > 2000 | 0.758 | 20.3
NCI-H1155 (large cell lung carcinoma, suspension) | 0.992 | > 10000 | 0.893 | 164 | 0.71 | 2150 | 0.923 | > 2000 | 0.466 | 2.57
LXF-289 (lung adenocarcinoma, adherent) | 0.961 | > 10000 | 0.985 | > 200 | 0.67 | 1850 | 0.856 | 1570 | 0.682 | 9.96
EN (endometrium, adherent) | 0.982 | > 10000 | 0.944 | > 200 | 0.84 | 9710 | 0.876 | > 2000 | 0.982 | > 50

Cell Line | AUC [1] | IC50 [1] [nM] | AUC [2] | IC50 [2] [nM] | AUC [3] | IC50 [3] [nM] | AUC [4] | IC50 [4] [nM] | AUC [5] | IC50 [5] [nM]
SCC90 (head and neck, adherent) | 0.978 | > 10000 | 0.981 | > 200 | 0.808 | 8120 | 0.935 | > 2000 | 0.978 | > 50
PF-382 (T-cell lymphoblastic leukaemia, suspension) | 0.99 | > 10000 | 0.646 | 30 | 0.591 | 1070 | 0.979 | > 2000 | 0.746 | 14.2
MPP-89 (mesothelioma, adherent) | 0.971 | > 10000 | 0.95 | > 200 | 0.751 | 4190 | 0.957 | > 2000 | 0.809 | 36.3
VMRC-RCZ (kidney, adherent) | 0.85 | 9620 | 0.973 | > 200 | 0.86 | > 10000 | 0.941 | > 2000 | 0.76 | 20.4
JVM-2 (lymphoid neoplasm, suspension) | 0.611 | 1360 | 0.653 | 36.8 | 0.701 | 2640 | 0.982 | > 2000 | 0.415 | 1.73
MMAC-SF (melanoma, adherent) | 0.066 | < 39.1 | 0.985 | > 200 | 0.821 | 6130 | 0.985 | > 2000 | 0.842 | 37.2
no-11 (glioma, adherent) | 0.981 | > 10000 | 0.976 | > 200 | 0.822 | 7910 | 0.976 | > 2000 | 0.852 | > 50
LN-405 (glioma, adherent) | 0.977 | > 10000 | 0.982 | > 200 | 0.783 | 5400 | 0.984 | > 2000 | 0.947 | > 50
NCI-H1836 (small cell lung carcinoma, suspension) | 0.986 | > 10000 | 0.985 | > 200 | 0.814 | 6120 | 0.988 | > 2000 | 0.956 | > 50
TE-9 (oesophagus, adherent) | 0.978 | > 10000 | 0.967 | > 200 | 0.867 | 9580 | 0.974 | > 2000 | 0.683 | 10.4
CAL-29 (bladder, adherent) | 0.904 | > 10000 | 0.97 | > 200 | 0.698 | 2370 | 0.935 | > 2000 | 0.463 | 2.45
D-423MG (glioma, adherent) | 0.978 | > 10000 | 0.978 | > 200 | 0.539 | 819 | 0.914 | > 2000 | 0.548 | 4.36
MFE-280 (endometrium, adherent) | 0.979 | > 10000 | 0.976 | > 200 | 0.803 | 6610 | 0.964 | > 2000 | 0.927 | > 50
NCI-H1105 (small cell lung carcinoma, suspension) | 0.993 | > 10000 | 0.953 | > 200 | 0.519 | 698 | 0.906 | 1870 | 0.162 | 0.382
PL-21 (acute myeloid leukaemia, suspension) | 0.954 | > 10000 | 0.92 | > 200 | 0.684 | 2240 | 0.909 | > 2000 | 0.809 | 31.6
TT (thyroid, adherent) | 0.913 | > 10000 | 0.977 | > 200 | 0.641 | 1790 | 0.908 | > 2000 | 0.842 | > 50
LU-135 (small cell lung carcinoma, suspension) | 0.992 | > 10000 | 0.465 | 10.2 | 0.612 | 1200 | 0.887 | 1580 | 0.878 | 36.3
AMO-1 (haematopoietic neoplasm, suspension) | 0.872 | 7310 | 0.629 | 26.8 | 0.508 | 654 | 0.984 | > 2000 | 0.779 | 17.5
NCI-H2029 (small cell lung carcinoma, adherent) | 0.992 | > 10000 | 0.992 | > 200 | 0.862 | 7240 | 0.959 | > 2000 | 0.907 | > 50
NCI-H524 (small cell lung carcinoma, suspension) | 0.982 | > 10000 | 0.696 | 41.5 | 0.576 | 983 | 0.921 | > 2000 | 0.859 | 34.6
